These results are taken from the supplement of paper PMC12217912.

B1: TEV protease; numbered along this chain (parent)
chain: MGESLFKGPRDYNPISSSICHLTNESDGHTTSLYGIGFGPFIITNKHLFRRNNGTLVVQSLHGVFKVKDTTTLQQHLVDGRDMIIIRMPKDFPPFPQKLKFREPQREERICLVTTNFQTKSMSSMVSDTSCTFPSGDGIFWKHWIQTKDGQCGSPLVSTRDGFIVGIHSASNFTNTNNYFTSVPKNFMELLTNQEAQQWVSGWRLNADSVLWGGHKVFMVKPEEPFQPVKEATQL

The list shows a part of the results. The full chains were built here from the parent and the listed change. Inactive controls read about 0.05.

The variants in this assay derive from B1. Briefly: raw area under fraction-flipped curve 0-4 h after induction (AUC4h, not background-subtracted), DNA-recorder readout of cleavage of the substrate (dimensionless); higher = more cleavage of the substrate by the protease variant. The note with it: temperature: 34 °C; time window: 0-4 h after rhamnose induction. Here is the method: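 In vivo DNA recorder in E. coli TOP10(DE3) ΔrhaA at 34 °C. Each TEVp single-site mutant (parent TEVp 0) is paired with a single-site variant of the 7-mer TEVs (canonical ENLYFQ|S). The substrate sits between flexible linkers in a Bxb1-sfGFP-TEVs-SsrA fusion, so cleavage stabilises Bxb1 and speeds flipping of a recombination array, read by NGS. The value is the raw area under the fraction-flipped curve over 0-4 h after rhamnose induction (AUC4h), with ≥20 reads per time point. It is not background-subtracted; inactive controls average about 0.047.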
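Also: Bxb1 expression induced with 0.2% (w/v) L-rhamnose at OD600 near 0.5, cultures sampled hourly, flipped fraction per protease–substrate barcode pair counted by paired-end Illumina sequencing.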

As to MGESLFKGPRDYNPISSSICHLTNESDGHTTSLYGIGFGPFIITNKHLFRRNNGTLVVQSLHGVFKVKDTTTLQQHLVDGRDMIIIRMPKDFPPFPQKLKFREPQREERICLVTTNFQTKSMSSMVSDTSCTFPSGDGIFWKHWIQTKDGQCGSPLVSTRDGFIVGYHSASNFTNTNNYFTSVPKNFMELLTNQEAQQWVSGWRLNADSVLWGGHKVFMVKPEEPFQPVKEATQL [I167Y], the “area with substrate ENLYFQC” value is 0.092, the “area with substrate ENLYFQD” value was determined as 0.0501, the “area with substrate ENLYFQE” value came to 0.0594 and the “area with substrate ENLYFQF” value turned out to be 0.0465. Moreover, the “area with substrate ENLYFQK” value is 0.0634, the “area with substrate ENLYFQL” value stood at 0.0487, the “area with substrate ENLYFQM” value worked out at 0.068 and the “area with substrate ENLYFQN” value is 0.0612. The “area with substrate ENLYFQR” value turned out to be 0.0653, the “area with substrate ENLYFQS” value worked out at 0.0736, the “area with substrate ENLYFQW” value was 0.0518 and the “area with substrate ENLYFQY” value turned out to be 0.0388.
Regarding MGESLFKGPRDYNPISSSICHLTNESDGHTTSLYGIGFGPFIITNKHLFRRNNGTLVVQSLHGVFKVKDTTTLQQHLVDGRDMIIIRMPKDFPPFPQKLKFREPQREERICLVTTNFQTKSMSSMVSDTSCTFPSGDGIFWKHWIQTKDGQCGSPLVSTRDGFIVGIHSASNFTNANNYFTSVPKNFMELLTNQEAQQWVSGWRLNADSVLWGGHKVFMVKPEEPFQPVKEATQL [T176A], the “area with substrate ENLYFQC” value amounted to 0.0861, the “area with substrate ENLYFQG” value is 0.0656, the “area with substrate ENLYFQH” value is 0.0672 and the “area with substrate ENLYFQI” value came out at 0.0364. Besides, the “area with substrate ENLYFQM” value amounted to 0.0784, the “area with substrate ENLYFQN” value turned out to be 0.0517, the “area with substrate ENLYFQQ” value amounted to 0.111 and the “area with substrate ENLYFQR” value was found to be 0.0583. The “area with substrate ENLYFQS” value worked out at 0.0785, the “area with substrate ENLYFQT” value stood at 0.0385 and the “area with substrate ENLYFQW” value worked out at 0.0315.
Take MGESLFKGPRDYNPISSSICHLTNESDGHTTSLYGIGFGPFIITNKHLFRRNNGTLVVQSLHGVFKVKDTTTLQQHLVDGRDMIIIRMPKDFPPFPQKLKFREPQREERICLVTTNFQTKSMSSMVSDTSCTFPSGDGIFWKHWIQTKDGQCGSPLVSTRDGFIVGIHSASEFTNTNNYFTSVPKNFMELLTNQEAQQWVSGWRLNADSVLWGGHKVFMVKPEEPFQPVKEATQL [N172E]: the “area with substrate ENLYFQC” value worked out at 0.0667, the “area with substrate ENLYFQH” value came out at 0.0731, the “area with substrate ENLYFQI” value came to 0.0629 and the “area with substrate ENLYFQK” value came out at 0.0869. The “area with substrate ENLYFQL” value came out at 0.0618, the “area with substrate ENLYFQN” value came out at 0.0697, the “area with substrate ENLYFQQ” value was 0.056 and the “area with substrate ENLYFQS” value was 0.0657. The “area with substrate ENLYFQT” value came out at 0.0732.
Turning to MGESLFKGPRDYNPISSSICHLTNESDGHTTSLYGIGFGPFIITNKHLFRRNNGTLVVQSLHGVFKVKDTTTLQQHLVDGRDMIIIRMPKDFPPFPQKLKFREPQREERICLVTTNFQTKSMSSMVSDTSCTFPSGDGIFWKHWIQTKDGQCGSPLVSTRDGFIVGIHSASNFTNTNNYFPSVPKNFMELLTNQEAQQWVSGWRLNADSVLWGGHKVFMVKPEEPFQPVKEATQL [T181P], the “area with substrate ENLYFQC” value is 0.0488, the “area with substrate ENLYFQF” value turned out to be 0.0519, the “area with substrate ENLYFQG” value was determined as 0.0524 and the “area with substrate ENLYFQH” value was found to be 0.0554. Besides, the “area with substrate ENLYFQI” value turned out to be 0.0687, the “area with substrate ENLYFQK” value turned out to be 0.0495, the “area with substrate ENLYFQL” value came to 0.0587 and the “area with substrate ENLYFQM” value was found to be 0.0536. Moreover, the “area with substrate ENLYFQP” value worked out at 0.0505, the “area with substrate ENLYFQS” value is 0.0583, the “area with substrate ENLYFQV” value is 0.0563 and the “area with substrate ENLYFQY” value came to 0.0525.
With MGESLFKGPRDYNPISSSICHLTNESDGHTTSLYGIGFGPFIITNKHLFRRNNGTLVVQSLHGVFKVKDTTTLQQHLVDGRDMIIIRMPKDFPPFPQKLKFREPQREERICLVTTNFQTKSMSSMVSDTSCTFPSGDGIFWKHWIQTKDGQCGSPLVSTRDGFIVGIHSASNFTNTNNYFTSVPKPFMELLTNQEAQQWVSGWRLNADSVLWGGHKVFMVKPEEPFQPVKEATQL [N186P], the “area with substrate ENLYFQC” value was 0.0671, the “area with substrate ENLYFQI” value amounted to 0.0556, the “area with substrate ENLYFQK” value stood at 0.0514 and the “area with substrate ENLYFQL” value came out at 0.0559. Also, the “area with substrate ENLYFQN” value is 0.0596, the “area with substrate ENLYFQP” value is 0.0734, the “area with substrate ENLYFQS” value stood at 0.08 and the “area with substrate ENLYFQT” value came to 0.0517. Also, the “area with substrate ENLYFQV” value came out at 0.0348, the “area with substrate ENLYFQW” value worked out at 0.0558 and the “area with substrate ENLYFQY” value turned out to be 0.0668.
As for MGESLFKGPRDYNPISSSICHLTNESDGHTTSLYGIGFGPFIITNKHLFRRNNGTLVVQSLHGVFKVKDTTTLQQHLVDGRDMIIIRMPKDFPPFPQKLKFREPQREERICLVTTNFQTKSMSSMVSDTSCTFPSGDGIFWKHWIQTKDGQCGSPLVSTRDGFIVIIHSASNFTNTNNYFTSVPKNFMELLTNQEAQQWVSGWRLNADSVLWGGHKVFMVKPEEPFQPVKEATQL [G166I], the “area with substrate ENLYFQC” value stood at 0.0435, the “area with substrate ENLYFQD” value was 0.0513, the “area with substrate ENLYFQF” value was 0.0501 and the “area with substrate ENLYFQG” value amounted to 0.0519. The “area with substrate ENLYFQH” value turned out to be 0.0447, the “area with substrate ENLYFQI” value worked out at 0.0406, the “area with substrate ENLYFQK” value turned out to be 0.0437 and the “area with substrate ENLYFQL” value turned out to be 0.0436. Further, the “area with substrate ENLYFQM” value came to 0.0609, the “area with substrate ENLYFQN” value was 0.0579, the “area with substrate ENLYFQQ” value came to 0.0458 and the “area with substrate ENLYFQR” value was determined as 0.0502. The “area with substrate ENLYFQS” value worked out at 0.0508, the “area with substrate ENLYFQT” value is 0.0473, the “area with substrate ENLYFQV” value was found to be 0.0503 and the “area with substrate ENLYFQW” value amounted to 0.056. The “area with substrate ENLYFQY” value stood at 0.0416.
As for MGESLFKGPRDYNPISSSICHLTNESDGHTTSLYGIGFGPFIITNKHLFRRNNGTLVVQSLHGVFKVKDTTTLQQHLVDGRDMIIIRMPKDFPPFPQKLKFREPQREERICLVTTNFQTKSMSSMVSDTSCTFPSGDGIFWKHWIQTKDGQCGSPLVSTRDGFIVGIHSASNFTNTNNYWTSVPKNFMELLTNQEAQQWVSGWRLNADSVLWGGHKVFMVKPEEPFQPVKEATQL [F180W], the “area with substrate ENLYFQC” value stood at 0.111, the “area with substrate ENLYFQD” value was found to be 0.0593, the “area with substrate ENLYFQE” value came out at 0.0537 and the “area with substrate ENLYFQG” value turned out to be 0.0749. For the same variant, the “area with substrate ENLYFQI” value was 0.056, the “area with substrate ENLYFQK” value turned out to be 0.0515, the “area with substrate ENLYFQL” value worked out at 0.0505 and the “area with substrate ENLYFQQ” value was 0.0596. Further, the “area with substrate ENLYFQR” value worked out at 0.0565, the “area with substrate ENLYFQS” value came out at 0.0866, the “area with substrate ENLYFQT” value stood at 0.0645 and the “area with substrate ENLYFQV” value is 0.05. Besides, the “area with substrate ENLYFQY” value amounted to 0.0442.
In the case of MGESLFKGPRDYNPISSSICHLTNESDGHTTSLYGIGFGPFIITNKHLFRRNNGTLVVQSLHGVFKVKDTTTLQQHLVDGRDMIIIRMPKDFPPFPQKLKFREPQREERICLVTTNFQTKSMSSMVSDTSCTFPSGDGIFWKHWIQTKDGQCGSPLVSTRDGFIVGIHSASNFTNTNNYGTSVPKNFMELLTNQEAQQWVSGWRLNADSVLWGGHKVFMVKPEEPFQPVKEATQL [F180G], the “area with substrate ENLYFQC” value turned out to be 0.0953, the “area with substrate ENLYFQH” value worked out at 0.0454, the “area with substrate ENLYFQK” value is 0.0608 and the “area with substrate ENLYFQL” value stood at 0.0591. Moreover, the “area with substrate ENLYFQM” value worked out at 0.0644, the “area with substrate ENLYFQN” value was determined as 0.0557, the “area with substrate ENLYFQR” value worked out at 0.0497 and the “area with substrate ENLYFQS” value amounted to 0.0751. In addition, the “area with substrate ENLYFQT” value was 0.0535, the “area with substrate ENLYFQW” value came out at 0.0549 and the “area with substrate ENLYFQY” value turned out to be 0.0318.
MGESLFKGPRDYNPISSSICHLTNESDGHTTSLYGIGFGPFIITNKHLFRRNNGTLVVQSLHGVFKVKDTTTLQQHLVDGRDMIIIRMPKDFPPFPQKLKFREPQREERICLVTTNFQTKSMSSMVSDTSCTFPSGDGIFWKHWIQTKDGQCGSPLVSTRDGFIAGIHSASNFTNTNNYFTSVPKNFMELLTNQEAQQWVSGWRLNADSVLWGGHKVFMVKPEEPFQPVKEATQL [V165A]: the “area with substrate ENLYFQC” value is 0.0514, the “area with substrate ENLYFQG” value amounted to 0.0521, the “area with substrate ENLYFQI” value turned out to be 0.0307 and the “area with substrate ENLYFQM” value came out at 0.0664. In addition, the “area with substrate ENLYFQN” value turned out to be 0.0545, the “area with substrate ENLYFQP” value stood at 0.0452, the “area with substrate ENLYFQQ” value worked out at 0.0487 and the “area with substrate ENLYFQS” value was found to be 0.054. In addition, the “area with substrate ENLYFQV” value is 0.0585.
On to MGESLFKGPRDYNPISSSICHLTNESDGHTTSLYGIGFGPFIITNKHLFRRNNGTLVVQSLHGVFKVKDTTTLQQHLVDGRDMIIIRMPKDFPPFPQKLKFREPQREERICLVTTNFQTKSMSSMVSDTSCTFPSGDGIFWKHWIQTKDGQCGSPLVSTRDGFIVGIHSASNFTNTNNYFTSLPKNFMELLTNQEAQQWVSGWRLNADSVLWGGHKVFMVKPEEPFQPVKEATQL [V183L], for which the “area with substrate ENLYFQC” value amounted to 0.0783, the “area with substrate ENLYFQG” value amounted to 0.0756, the “area with substrate ENLYFQK” value was 0.0703 and the “area with substrate ENLYFQL” value came out at 0.064. In addition, the “area with substrate ENLYFQR” value came out at 0.0591, the “area with substrate ENLYFQS” value came out at 0.0829, the “area with substrate ENLYFQT” value turned out to be 0.0662 and the “area with substrate ENLYFQV” value came out at 0.0671. For the same variant, the “area with substrate ENLYFQW” value was 0.0662 and the “area with substrate ENLYFQY” value was determined as 0.0799.
